From the supplement of paper PMC3334620
Whole data set: some 33,000 sequences, median “E-score (-0.5 to 0.5)” near -0.041, cut for the highest 2% near 0.37. The list shows a part of the results.

What follows are sequences tested against T1, Ecm22 (UniProt Q05958) (assay: PBM E-score (8-mer binding enrichment) (E-score (-0.5 to 0.5)); higher = stronger / more preferred TF binding; most listed sequences are background and not binding sites). Conditions: protein concentration: 200 nM; construct: GST-full length.
T1 sequence: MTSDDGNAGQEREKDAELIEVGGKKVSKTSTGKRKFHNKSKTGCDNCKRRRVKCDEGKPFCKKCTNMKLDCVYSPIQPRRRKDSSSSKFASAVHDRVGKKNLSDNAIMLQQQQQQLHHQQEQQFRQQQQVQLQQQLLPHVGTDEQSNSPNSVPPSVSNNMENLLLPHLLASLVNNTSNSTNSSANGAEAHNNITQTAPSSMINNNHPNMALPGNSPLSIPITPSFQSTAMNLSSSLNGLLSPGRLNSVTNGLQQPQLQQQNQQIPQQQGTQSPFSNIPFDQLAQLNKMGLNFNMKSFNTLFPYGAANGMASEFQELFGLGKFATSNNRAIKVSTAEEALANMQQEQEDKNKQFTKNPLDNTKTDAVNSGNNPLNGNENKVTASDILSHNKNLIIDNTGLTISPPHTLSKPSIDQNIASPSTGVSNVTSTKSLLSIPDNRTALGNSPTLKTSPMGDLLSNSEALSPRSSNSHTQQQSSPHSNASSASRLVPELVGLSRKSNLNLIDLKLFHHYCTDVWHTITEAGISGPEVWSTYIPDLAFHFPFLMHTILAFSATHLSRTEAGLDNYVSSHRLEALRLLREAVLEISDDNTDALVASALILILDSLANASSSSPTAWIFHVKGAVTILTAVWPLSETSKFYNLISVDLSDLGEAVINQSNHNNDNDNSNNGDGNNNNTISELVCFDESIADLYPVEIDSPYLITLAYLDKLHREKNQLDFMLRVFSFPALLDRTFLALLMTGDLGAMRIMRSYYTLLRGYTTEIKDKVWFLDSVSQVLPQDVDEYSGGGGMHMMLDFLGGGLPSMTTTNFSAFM
Summary of the method: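 Yeast transcription factors carrying a GST tag, as full-length proteins or DNA-binding domains, were produced by PURExpress in vitro transcription/translation. About 100-200 nM protein was applied to universal all-10-mer Agilent arrays, double-stranded by primer extension on fresh or once-stripped slides. Bound protein was detected with fluorescent anti-GST, and scans were normalised with masliner. The Universal PBM Analysis Suite gave each ungapped eight-base word, pooled with its reverse complement, an E-score, a modified Wilcoxon-Mann-Whitney statistic.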

Row | Sequence | PBM E-score
1 | GTAAACCA | 0.0466
2 | CTAGCGGA | -0.138
3 | CACGCGGG | 0.0145
4 | CGAGGCTC | 0.24
5 | ATTCGTAG | 0.325
6 | CTCCCCAC | -0.241
7 | GGCAGGCC | -0.199
8 | CCCCCCGC | -0.098
9 | GCTGTGCA | -0.0109
10 | CAAAGGTG | -0.207
11 | GGCCAGCA | -0.296
12 | CCAGGTTC | -0.143
13 | AATCCTAT | -0.0603
14 | CCATCAGC | -0.0522
15 | CCCAATCC | -0.164
16 | GGAGACAA | 0.088
17 | CTTTCCTC | -0.19
18 | GCGACCCA | -0.0112
19 | AGAGGATA | -0.0783
20 | AGTGGTAC | 0.164
21 | ATGATCCG | 0.0821
22 | GTTCCGGA | 0.176
23 | CCTGCCAG | -0.298
24 | ACGTTCCG | 0.259

Row | Sequence | PBM E-score
25 | ATGCAGCG | -0.176
26 | AAAACGAC | 0.363
27 | AGAATAGG | 0.13
28 | AGCTTCGC | 0.111
29 | TATTGTGA | -0.0113
30 | CGTCCTAG | -0.202
31 | AAAGACTA | -0.0696
32 | ATCTAATA | 0.193
33 | CCCCATCA | -0.255
34 | CAGCTATC | -0.19
35 | ACTAGACA | -0.163
36 | CGTAGATC | 0.204
37 | ATCCCCAT | -0.141
38 | CCGTACGC | 0.324
39 | ATGTATGC | 0.0457
40 | GCGGGAGC | -0.092
41 | AAGCCGGT | -0.132
42 | CAAGGGAG | 0.062
43 | AGCCATTC | -0.0808
44 | CTTGTCAA | -0.224
45 | AATAATAT | 0.106
46 | AGGAGAAG | -0.0156
47 | AGTACGAC | 0.443
48 | GACATCTA | 0.11

Row | Sequence | PBM E-score
49 | CACGTGTA | 0.113
50 | CCACATGG | -0.101
51 | CGAGGCCG | 0.209
52 | AAGTCTGA | -0.252
53 | CTAGGGAC | -0.323
54 | CAGCCATA | -0.0379
55 | GTGTCTCA | -0.0959
56 | CACAGAAC | 0.00026
57 | GAGGTCCA | -0.209
58 | CAAACTGG | -0.127
59 | ACGGGGAT | 0.241
60 | GCAGTAGC | -0.182
61 | AACGAATA | 0.371
62 | CACCCTCG | 0.217
63 | AGGCAATA | -0.197
64 | TTGGAAAA | -0.0386
65 | CTTGGGTC | -0.199
66 | TCGAGTAA | 0.0861
67 | AGCTGTTG | -0.22
68 | ATGAGAAG | -0.105
69 | AGGCGCCT | -0.0378
70 | ACGCGAGC | 0.29
71 | ATGGTTTC | -0.0126
72 | CAATTGGA | -0.231

Row | Sequence | PBM E-score
73 | ACCGGGCG | 0.0784
74 | AGTACTGA | -0.111
75 | ATGCTAGC | 0.0414
76 | AATCAGTC | -0.101
77 | ACTATCAG | -0.157
78 | CAGACCGC | 0.113
79 | AGATCTCG | 0.211
80 | CCAAAAAC | 0.0377
81 | CACATTCA | -0.239
82 | AAGCAAGA | -0.156
83 | ACCATTGA | 0.00707
84 | CTTATAGA | -0.11
85 | GACAATCC | -0.0332
86 | TAAGTCAA | -0.0996
87 | GTATCGTA | 0.421
88 | TCGACCGA | 0.0211
89 | ACCACGCC | 0.00537
90 | GCCTACGA | 0.256
91 | CGGCCCGA | -0.00302
92 | CAACCCCC | -0.3
93 | CAACACGA | 0.162
94 | CGAATAAG | 0.217
